Experimental data taken from patent US20150307938A1, “METHOD TO IDENTIFY A NOVEL CLASS OF IMMUNOLOGIC ADJUVANTS” (Lancell, L.L.C., priority 2011, published 2015).

System: dendritic cells
Test: Activated dendritic cells in the draining lymph node after topical application (earlier work)
Assay type: in vivo
Conditions: mice injected intradermally with peptide (SIINFEKL), topical DBP
Text: We previously identified an initial group of small lipophilic molecules that can traverse the stratum corneum, activate skin dendritic cells and induce their migration to the draining lymph node (U.S. Pat. No. 6,210,672). For example, such lipophilic molecules may include dibutyl phthalate, dibutyl-D-tartarate, N,N-diethyl-toluamide, dibutylfumarate, di(2-ethylhexyl)fumarate, diisooctylmaleate, diethylhexylmaleate, diisooctylfumarate, benzoic acid, behenylmaleate, dioctylphthalate, dibutylmaleate, dioctymaleate, dibutylsuccinate, dioctylsuccinate, dinonylphthalate, diisononylphthalate, dimethylphthalate, diethylphthalate, dipropylphthalate, diphenylphthalate, dibenzylbutylphthalate, diethylmethylphthalate and camphor. […] This response occurs in the absence of antigen.
Topical DBP induced a 16-fold increase in the IgG1 Ab response to OVA adsorbed to alum and increased the IgG2c response 26-fold.

**Q.** For `CCCCOC(=O)c1ccccc1C(=O)OCCCC` [DBP, dibutylphthalate], which “Peptide-bearing activated dendritic cells in the draining lymph node, increase” value is on record?
**A.** The value was 40 fold.
